Some test systems named below: WM115; WM1716; WM1745; WM3526; WM3619; WM451Lu.
Common to all, as to experiment: cell count relative to DMSO control; melanoma cells; higher = more viable cells
What all share (conditions): library dose: low library concentration; 72 h

Some of the results follow. Single values are uncertain, as repeats are few or missing.
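Note: cell number obtained by counting DAPI-stained nuclei in high-throughput microscope images with image analysis software, screen run in 1,536-well plates.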

In the case of `O=C(Oc1ccc([N+](=O)[O-])cc1)N1CCC(C(O)(c2ccc3c(c2)OCO3)c2ccc3c(c2)OCO3)CC1` + O=c1cc(-c2cccc3c2Sc2ccccc2S3)oc(N2CCOCC2)c1 [KU55933] (first compound 1 µM, partner dose 1 µM), the cell count was 106% in the experiment with WM115; 107% in the experiment with WM1716; 104% in the experiment on WM1745; 100% with WM3526; 91.9% in the experiment on WM3619; 111% with WM451Lu.

For the molecule `NCC(=O)Nc1ccc(-n2nc(C(F)(F)F)cc2-c2ccc3c(ccc4ccccc43)c2)cc1` + Cc1cc(SCc2sc(-c3ccc(C(F)(F)F)c(F)c3)nc2C)ccc1OCC(=O)O [GW0742] (first compound 1 µM, partner dose 2 µM), the cell count with WM115 was determined as 98.3%; in the experiment with WM1716, 90%; with WM1745, 109%; in the experiment on WM3526, 47.1%; in the experiment on WM3619 it was 100%; in the experiment on WM451Lu it was 61.5%.

Turning to `CO[C@@H]1[C@H](N(C)C(=O)c2ccccc2)C[C@H]2O[C@]1(C)n1c3ccccc3c3c4c(c5c6ccccc6n2c5c31)C(=O)NC4` [Midostaurin] + C/C(O)=C(\C#N)C(=O)Nc1cc(Br)ccc1Br [LFM-A13] (first compound 0.08 µM, partner dose 2 µM), the cell count stood at 80.5% in the experiment with WM115; 79.9% in the experiment with WM1716; 90.8% in the experiment on WM1745; 93.7% in the experiment with WM3526; 94.8% in the experiment on WM3619; 102% in the experiment on WM451Lu.

As to `Cn1c(=O)n(-c2ccc(C(C)(C)C#N)cc2)c2c3cc(-c4cnc5ccccc5c4)ccc3ncc21` + C/C(O)=C(\C#N)C(=O)Nc1cc(Br)ccc1Br [LFM-A13] (first compound 0.004 µM, partner dose 2 µM), the cell count in the experiment on WM115 was 92.1%; in the experiment with WM1716, 84.1%; in the experiment with WM1745, 90.1%; in the experiment on WM3526, 82.1%; in the experiment with WM3619, 82%; in the experiment with WM451Lu, 92.5%.

On to `C[C@]1(O)C[C@@H](c2nc(-c3ccc4ccc(-c5ccccc5)nc4c3)c3c(N)nccn32)C1` + Cc1cc(SCc2sc(-c3ccc(C(F)(F)F)c(F)c3)nc2C)ccc1OCC(=O)O [GW0742] (first compound 0.4 µM, partner dose 2 µM), for which the cell count with WM115 came to 112%; in the experiment with WM1716, 102%; in the experiment on WM1745 it was 85.2%; in the experiment with WM3526, 87.1%; in the experiment with WM3619, 105%; with WM451Lu, 110%.

On to `CC1(C)CCC(c2ccc(Cl)cc2)=C(CN2CCN(c3ccc(C(=O)NS(=O)(=O)c4ccc(N[C@H](CCN5CCOCC5)CSc5ccccc5)c(S(=O)(=O)C(F)(F)F)c4)cc3)CC2)C1` + Cn1cc(C2=C(c3cn(C4CCN(Cc5ccccn5)CC4)c4ccccc34)C(=O)NC2=O)c2ccccc21 [Enzastaurin] (first compound 0.4 µM, partner dose 0.8 µM), for which the cell count came out at 110% in the experiment with WM115; 77.2% in the experiment with WM1716; 9.87% with WM1745; 100% in the experiment on WM3526; 103% in the experiment on WM3619; 87.3% in the experiment on WM451Lu.

For the molecule `N#CC[C@H](C1CCCC1)n1cc(-c2ncnc3[nH]ccc23)cn1` [ruxolitinib] + Cc1cc(SCc2sc(-c3ccc(C(F)(F)F)c(F)c3)nc2C)ccc1OCC(=O)O [GW0742] (first compound 1 µM, partner dose 2 µM), the cell count with WM115 was determined as 105%; with WM1716, 109%; in the experiment with WM1745 it was 100%; with WM3526, 118%; with WM3619 it was 91.8%; in the experiment with WM451Lu, 108%.

Take `Cn1cncc1[C@@](N)(c1ccc(Cl)cc1)c1ccc2c(c1)c(-c1cccc(Cl)c1)cc(=O)n2C` [tipifarnib] + O=C(Oc1ccc([N+](=O)[O-])cc1)N1CCC(C(O)(c2ccc3c(c2)OCO3)c2ccc3c(c2)OCO3)CC1 [JZL184] (first compound 0.01 µM, partner dose 1 µM): the cell count in the experiment on WM115 came to 74%; with WM1716, 64.4%; in the experiment with WM1745, 83%; in the experiment with WM3526, 90.5%; with WM3619 it was 115%; in the experiment on WM451Lu, 72.8%.

Consider `O=C(Oc1ccc([N+](=O)[O-])cc1)N1CCC(C(O)(c2ccc3c(c2)OCO3)c2ccc3c(c2)OCO3)CC1` + Cn1cc(/C=C2\C(=O)Nc3cccnc32)c2ccccc21 [GW441756] (first compound 1 µM, partner dose 0.4 µM), for which the cell count in the experiment on WM115 amounted to 95.7%; in the experiment on WM1716 it was 96.7%; in the experiment with WM1745 it was 88%; with WM3526 it was 115%; in the experiment with WM3619, 97.9%; with WM451Lu, 122%.

Regarding `CS(=O)(=O)c1ccc(C(=O)Nc2ccc(Cl)c(-c3ccccn3)c2)c(Cl)c1` [vismodegib] + O=C(Oc1ccc([N+](=O)[O-])cc1)N1CCC(C(O)(c2ccc3c(c2)OCO3)c2ccc3c(c2)OCO3)CC1 [JZL184] (first compound 1 µM, partner dose 1 µM), the cell count amounted to 99.6% in the experiment on WM115; 96.4% in the experiment on WM1716; 114% in the experiment on WM1745; 83% with WM3526; 99.7% in the experiment with WM3619; 99.7% with WM451Lu.

Take `CC(=O)c1c(C)c2cnc(Nc3ccc(N4CCNCC4)cn3)nc2n(C2CCCC2)c1=O` [palbociclib] + O=C(Oc1ccc([N+](=O)[O-])cc1)N1CCC(C(O)(c2ccc3c(c2)OCO3)c2ccc3c(c2)OCO3)CC1 [JZL184] (first compound 0.04 µM, partner dose 1 µM): the cell count in the experiment on WM115 was determined as 67.2%; in the experiment on WM1716, 51.5%; in the experiment with WM1745, 73.5%; with WM3526, 62.2%; in the experiment with WM3619 it was 80.1%; in the experiment on WM451Lu, 78%.

On to `C[C@]1(O)C[C@@H](c2nc(-c3ccc4ccc(-c5ccccc5)nc4c3)c3c(N)nccn32)C1` + C/C(O)=C(\C#N)C(=O)Nc1cc(Br)ccc1Br [LFM-A13] (first compound 0.4 µM, partner dose 2 µM), for which the cell count in the experiment on WM115 turned out to be 115%; with WM1716, 90.3%; with WM1745 it was 72.2%; with WM3526 it was 79.4%; with WM3619, 97.6%; with WM451Lu it was 98.4%.

Regarding `Cc1cn(-c2cc(NC(=O)c3ccc(C)c(Nc4nccc(-c5cccnc5)n4)c3)cc(C(F)(F)F)c2)cn1` [nilotinib] + C[As](C)SC[C@H](NC(=O)CC[C@H](N)C(=O)O)C(=O)NCC(=O)O [Darinaparsin] (first compound 0.2 µM, partner dose 0.4 µM), the cell count in the experiment with WM115 was 106%; in the experiment on WM1716 it was 102%; in the experiment with WM1745 it was 86.3%; in the experiment with WM3526, 88.2%; in the experiment with WM3619 it was 80.5%; in the experiment with WM451Lu, 111%.

As for `O=C(Nc1cc(C(F)(F)F)cc(C(F)(F)F)c1)c1cc(Cl)ccc1O` + C[C@]12O[C@H](C[C@]1(O)CO)n1c3ccccc3c3c4c(c5c6ccccc6n2c5c31)CNC4=O [Lestaurtinib] (first compound 0.016 µM, partner dose 0.004 µM), the cell count was found to be 98.8% with WM115; 108% with WM1716; 107% in the experiment with WM1745; 91.6% with WM3526; 101% with WM3619; 102% with WM451Lu.

With `CNC(=O)c1cc(Oc2ccc(NC(=O)Nc3ccc(Cl)c(C(F)(F)F)c3)cc2)ccn1` [sorafenib] + C[As](C)SC[C@H](NC(=O)CC[C@H](N)C(=O)O)C(=O)NCC(=O)O [Darinaparsin] (first compound 0.4 µM, partner dose 0.4 µM), the cell count with WM115 worked out at 95.8%; in the experiment on WM1716 it was 90.4%; in the experiment with WM1745 it was 95.4%; in the experiment with WM3526, 101%; with WM3619 it was 85.3%; in the experiment with WM451Lu, 124%.

For the molecule `Cn1cnc2c(F)c(Nc3ccc(Br)cc3Cl)c(C(=O)NOCCO)cc21` [selumetinib] + C/C(O)=C(\C#N)C(=O)Nc1cc(Br)ccc1Br [LFM-A13] (first compound 0.015 µM, partner dose 2 µM), the cell count in the experiment on WM115 came out at 88.8%; in the experiment on WM1716, 114%; in the experiment with WM1745, 92.1%; with WM3526 it was 57.7%; in the experiment with WM3619, 82%; with WM451Lu, 84.2%.

As for `CC(=O)O[C@@]12CO[C@@H]1C[C@H](O)[C@@]1(C)C(=O)[C@H](O)C3=C(C)[C@@H](OC(=O)[C@H](O)[C@@H](NC(=O)OC(C)(C)C)c4ccccc4)C[C@@](O)([C@@H](OC(=O)c4ccccc4)[C@H]21)C3(C)C` [Docetaxel] + O=C(Oc1ccc([N+](=O)[O-])cc1)N1CCC(C(O)(c2ccc3c(c2)OCO3)c2ccc3c(c2)OCO3)CC1 [JZL184] (first compound 0.0001 µM, partner dose 1 µM), the cell count stood at 55.9% in the experiment on WM115; 33.6% with WM1716; 46.5% in the experiment on WM1745; 41.8% in the experiment with WM3526; 52.3% with WM3619; 63.6% with WM451Lu.

For `CC1(C)CCC(c2ccc(Cl)cc2)=C(CN2CCN(c3ccc(C(=O)NS(=O)(=O)c4ccc(N[C@H](CCN5CCOCC5)CSc5ccccc5)c(S(=O)(=O)C(F)(F)F)c4)cc3)CC2)C1` + Cc1cc(SCc2sc(-c3ccc(C(F)(F)F)c(F)c3)nc2C)ccc1OCC(=O)O [GW0742] (first compound 0.4 µM, partner dose 2 µM), the cell count in the experiment with WM115 was found to be 91.1%; in the experiment with WM1716, 84.3%; with WM1745, 6.17%; in the experiment on WM3526, 96.2%; with WM3619, 47.5%; in the experiment with WM451Lu, 84.4%.

With `Cn1cncc1[C@@](N)(c1ccc(Cl)cc1)c1ccc2c(c1)c(-c1cccc(Cl)c1)cc(=O)n2C` [tipifarnib] + C/C(O)=C(\C#N)C(=O)Nc1cc(Br)ccc1Br [LFM-A13] (first compound 0.01 µM, partner dose 2 µM), the cell count is 95.4% in the experiment with WM115; 88% with WM1716; 111% in the experiment with WM1745; 94.8% with WM3526; 65.4% in the experiment with WM3619; 95.6% with WM451Lu.

Consider `C=C(c1ccc(C(=O)O)cc1)c1cc2c(cc1C)C(C)(C)CCC2(C)C` [Bexarotene] + C/C(O)=C(\C#N)C(=O)Nc1cc(Br)ccc1Br [LFM-A13] (first compound 2 µM, partner dose 2 µM), for which the cell count in the experiment on WM115 turned out to be 101%; with WM1716 it was 80.1%; with WM1745 it was 93.7%; with WM3526, 66.5%; with WM3619, 88%; in the experiment on WM451Lu it was 74.2%.

As for `O=C(Nc1cc(C(F)(F)F)cc(C(F)(F)F)c1)c1cc(Cl)ccc1O` + O=C(Oc1ccc([N+](=O)[O-])cc1)N1CCC(C(O)(c2ccc3c(c2)OCO3)c2ccc3c(c2)OCO3)CC1 [JZL184] (first compound 0.016 µM, partner dose 1 µM), the cell count in the experiment with WM115 stood at 91.3%; in the experiment on WM1716 it was 101%; in the experiment with WM1745, 97%; in the experiment with WM3526, 78.8%; in the experiment with WM3619 it was 98.5%; with WM451Lu, 89.7%.

Regarding `Cc1cc(SCc2sc(-c3ccc(C(F)(F)F)c(F)c3)nc2C)ccc1OCC(=O)O` + O=C(Oc1ccc([N+](=O)[O-])cc1)N1CCC(C(O)(c2ccc3c(c2)OCO3)c2ccc3c(c2)OCO3)CC1 [JZL184] (first compound 2 µM, partner dose 1 µM), the cell count in the experiment with WM115 stood at 97.7%; in the experiment on WM1716, 104%; with WM1745 it was 92.7%; in the experiment on WM3526, 97.4%; in the experiment with WM3619 it was 104%; with WM451Lu, 93.7%.

Take `NCC(=O)Nc1ccc(-n2nc(C(F)(F)F)cc2-c2ccc3c(ccc4ccccc43)c2)cc1` + C/C(O)=C(\C#N)C(=O)Nc1cc(Br)ccc1Br [LFM-A13] (first compound 1 µM, partner dose 2 µM): the cell count is 90.3% with WM115; 85.2% in the experiment with WM1716; 94.5% with WM1745; 44.3% in the experiment with WM3526; 89% with WM3619; 49.9% in the experiment with WM451Lu.

Source of the values: the supplement of paper PMC4604168 (melanoma cell lines).
